Results reported in PubChem BioAssay AID1745853 (National Center for Advancing Translational Sciences (NCATS), 2022).
Some of the results follow. Further columns of the screen follow, without active or inactive calls.

Assays:
Experiment in all cases: Primary Screen for Target Class Profiling of Small Molecule Inhibitors of Methyltransferases
[1] = target: Glycine N-methyltransferase (Homo sapiens) (UniProt Q14749); details: purified enzyme, MTase-Glo SAH luminescence; measured here: GNMT inhibition; at 40 µM; stronger effect = lower value
Outline: (§1)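 Each enzyme was assayed with SAM and its substrate. SAH formation detected by MTase-Glo luminescence; single-point 40 uM screen[…].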

[2] = target: Guanidinoacetate N-methyltransferase (Homo sapiens) (UniProt Q14353); details: purified enzyme, MTase-Glo SAH luminescence; measured here: GAMT inhibition; at 40 µM; stronger effect = lower value
Outline: as §1

[3] = target: Histamine N-methyltransferase (Homo sapiens) (UniProt P50135); details: purified enzyme, MTase-Glo SAH luminescence; measured here: HNMT inhibition; at 40 µM; stronger effect = lower value
Outline: as §1

[4] = target: Nicotinamide N-methyltransferase (Homo sapiens) (UniProt P40261); details: purified enzyme, MTase-Glo SAH luminescence; measured here: NNMT inhibition; at 40 µM; stronger effect = lower value
Outline: as §1

[5] = target: Phenylethanolamine N-methyltransferase (Homo sapiens) (UniProt P11086); details: purified enzyme, MTase-Glo SAH luminescence; measured here: PNMT inhibition; at 40 µM; stronger effect = lower value
Outline: as §1
% is set by controls: 0 for no effect and ±100 for the full control effect.

Structure (SMILES)	activity change, negative = inhibition [1] [%]	activity change, negative = inhibition [2] [%]	activity change, negative = inhibition [3] [%]	activity change, negative = inhibition [4] [%]	activity change, negative = inhibition [5] [%]
Cc1nn(C)c(C)c1CN(Cc1ccnc2ccccc12)C1CC1	-12.4	-5.8	-5.88	-26.4	-11.5
CSc1ccc(CNC(=O)c2cc3n(n2)CC(C)(C(=O)NCc2ccc(C)cc2)N(C)C3=O)cc1 (stereo unspecified)	-2.89	-0.248	-0.411	-8.52	-4.59
Cc1ccc(CNC(=O)C2(C)Cn3cnc(C(=O)NCCc4ccc(Cl)cc4)c3C(=O)N2C2CC2)cc1 (stereo unspecified)	-7.23	0	5.48	-7.5	0.008
CCOC(=O)c1cc2n(n1)CC(C)(C(=O)NCCC(C)C)N(c1ccc(CC)cc1)C2=O (stereo unspecified)	-0.648	4.51	7.05	-0.404	-0.046
CCCn1c(=O)c2ccccc2n2c(SCC(=O)NCc3ccc(OC)cc3)nnc12	-5.23	2.68	1.95	-0.96	0.849
Cc1nc2c(c(-c3ccc(Cl)cc3)n1)CCN(C(=O)N(C)C)CC2	-9.21	-4.44	0.189	-15.9	-4.41
Cn1cc(CN2CCN(C(c3ccccc3)c3ccccc3)CC2)cc1C#N	–	3.53	–	-29.3	-0.164
CCCN(CCC)C(=O)C(CCC(=O)O)NC(=O)c1ccccc1 (stereo unspecified)	-1.33	7.99	3.84	-6.11	3
CC1=C[C@@H]2[C@@H]([C@@H](O)C[C@@]3(C)[C@H]2C[C@@H](C)[C@]3(O)C(=O)CO)[C@@]2(C)Cc3cnn(-c4ccccc4)c3C=C12	-16.9	0.117	-3.89	-24.3	-0.588
CCCn1c(=O)c2ccc(C(=O)NC3CCCC3)cc2n2c(SCC(=O)Nc3ccccc3C)nnc12	2.93	0	3.74	-0.73	4.96
Cc1c(Cl)cccc1N1C(=O)c2cc3sccc3n2CC1(C)C(=O)NC1CCCCCCC1 (stereo unspecified)	1.71	4.22	3.36	7.4	-0.405
O=C(C[C@@H]1CCNC[C@@H]1Cc1cc(CN2CCCCC2)on1)N1CCN(c2ccccc2)CC1	-0.041	0.627	-2.77	5.1	-0.431
Cc1cccc(CNC(=O)C2(C)Cn3cnc(C(=O)NCc4ccc(F)cc4)c3C(=O)N2C2CC2)c1 (stereo unspecified)	4.03	2.65	4.8	-1.66	4.07
CCn1c(=O)n(CC)c2cc(S(=O)(=O)Nc3cc(C)ccc3OC)c(Cl)cc21	-4.51	3.04	-4.72	-1.24	-3.69
CC1CCN(C(=O)CCc2nnc3n(Cc4ccc(Cl)cc4)c(=O)c4ccccc4n23)CC1	-10.3	0.478	-12.5	-4.63	-10.5
CN1CC(C(=O)N2CCN(Cc3ccccc3)CC2)NC1=O (stereo unspecified)	0.187	0.792	1.67	-1.55	-1.57
Cc1cccc(N2C(=O)c3cc4occc4n3CC2(C)C(=O)NC2CCCCC2C)c1C (stereo unspecified)	-1.62	0	-0.094	7.03	-1.59
C=C1CCC2C(OC(=O)C2(O)COC(C)=O)C2C(=C)C(O)CC12 (stereo unspecified)	0	2.52	5.08	-8.88	5.12
COc1cccc(OC)c1-c1nc(C(=O)N[C@@H](CC(C)C)C(=O)O)cn1-c1ccnc2cc(Cl)ccc12	-0.178	0.628	8.53	-19.8	0.189
C[C@]1(CO)[C@H]2Cc3sc(-c4ccsc4)nc3[C@@H](CC(=O)Nc3cccc(O)c3)[C@]2(C)CC[C@H]1O	-15.5	-10.3	-21	-15.4	-27.9

Structure (SMILES)	activity change, negative = inhibition [1] [%]	activity change, negative = inhibition [2] [%]	activity change, negative = inhibition [3] [%]	activity change, negative = inhibition [4] [%]	activity change, negative = inhibition [5] [%]
Nc1nc(N)c2nc(-c3cccc(O)c3)cnc2n1	–	-3.34	–	-20	-23.7
O=C(CCc1nnc2n(Cc3ccccc3Cl)c(=O)c3ccccc3n12)Nc1ccccc1	-6.33	-3.6	-2.79	-13	-13.8
Cc1ccc(Cn2c(=O)c3ccccc3n3c(-c4cccc(Cl)c4)nnc23)cc1	-4.03	1.84	4.62	-0.389	-2.58
COc1ccc(NC(=O)N2CC(N(CC(C)C)C3CCOCC3)C2)cc1F	-7.4	-8.67	-3.08	-11.9	-6.15
O=C(N[C@H]1CO[C@H]2[C@@H]1OC[C@@H]2Nc1nccc(-c2ccc(-c3ccccc3)cc2)n1)C1CCCCC1	-3.97	-7.42	-3.81	-10.3	-9.55
CC(C)(C)c1nn2c(SCC(=O)Nc3ccc(Cl)cc3)nnc2[nH]c1=O	6.16	0	9.63	-2.81	-4.12
COc1ccc(-c2ccc(NC(=O)C3CCCC3)cc2)nn1	-18.1	-16.3	-15	-13.3	-22.3
CCc1cccc(NC(=O)Cn2nc3n(CC(C)C)c(=O)c4ccc(C(=O)NC(C)C)cc4n3c2=O)c1	1.96	0	8.2	4.06	6.32
CN1CCC(=C2c3ccccc3CC(=O)c3sccc32)CC1	-14.2	3.82	-14.1	-16.3	3.61
COc1ccc(CN2CCCC(CNC(=O)NC(C)C)C2)cc1O (stereo unspecified)	17.7	3.98	0.844	4.13	-10.9
O=C(Cn1ccc2cc(S(=O)(=O)N3CCCC3)ccc21)NCc1ccc2c(c1)OCO2	3.47	0.947	-0.171	-1.54	-2.38
OC[C@@H]1CNC[C@H]1C1CCN(C2CNC2)CC1	-0.268	0.171	-4.31	-4.28	10.2
COCC(=O)N1CCN(CC(=O)NCc2cccs2)[C@H]2CS(=O)(=O)C[C@H]21	-4.83	-4.57	-3.27	-9.49	-0.824
O=C([C@@H]1CNC[C@H](C(=O)N2CCN(c3ccncc3)CC2)C1)N1CCOCC1	-0.289	-0.181	-35.7	-3.39	-2.53
O=c1c2ccccc2n2c(-c3ccccc3)nnc2n1Cc1ccc(F)cc1	-10.2	1.22	-2.64	-7.86	-2.57
Cc1ncc(Cl)cc1NCc1ccc(C(=O)NC(CC2CCCC2)C(=O)NC2CC2)s1 (stereo unspecified)	3.45	5.53	2.08	-17.2	-3.08
COc1ccccc1N1CCN(CC(O)COc2cccc3ccccc23)CC1 (stereo unspecified)	-11.8	0.806	-2.99	-14.8	-5.13
CC1(C(=O)NC2CCCC2)Cn2c(cc3sccc32)C(=O)N1Cc1ccccc1F (stereo unspecified)	-0.783	0	-1.22	-6.7	-1.87
O=C(CCc1nnc2n(Cc3ccccc3)c(=O)c3ccccc3n12)N1CCN(c2ccc(Cl)cc2)CC1	-6.51	0	6.93	7.37	1.36
